Data: the supplement of paper PMC11417369
The other results are listed elsewhere or left out.

Test system: PF3D7_0420300 AP2 domain 1 (GST-tagged)
Test: gcPBM binding intensity (ln(normalized median fluorescence intensity)); higher = stronger DNA binding
Outline: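 For binding intensity, the highest Masliner-normalised natural-log median intensity across replicate spots of either probe orientation was taken. Protein bound to the array was stained with Alexa488 anti-GST antibody and scanned at 488 nm. The protein, GST-tagged P. falciparum DNA-binding domains from E. coli at about 25 μg on average, had been applied for 1 h to an Agilent 4 × 180k array of primer-extended double-stranded 36-bp intergenic genomic probes and negative controls.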

Compared with “ATATTTTCAATGTTCACACATACACAAAAAAAAAAA [CACACA_site6077]”, “CTTTTGCCCAAAAAGGTACACACCACAATGTACATA [CACACA_site809]” is higher in “gcPBM binding intensity (ln)” value: 9.13 for the first, 9.23 for the second.

Compared with “GTTAATATACATAAACGTACAGAATTATTATGAGTT [XGTACX_site5185]”, “TAAATAATCGCATAATGTACATATAATTTTTTTTTT [XGTACX_site4880]” is lower in “gcPBM binding intensity (ln)” value: 9.13 for the first, 9.09 for the second.

Compared with “AAAATTTTTTTTATTTGTACACAATTCGATACATAA [XGTACX_site4804]”, “GCTTGGATATATTAATGTACTTATATATTATGTTGT [XGTACX_site3768]” is higher in “gcPBM binding intensity (ln)” value: 9.06 for the first, 9.66 for the second.

First: CCAATTCAAATATGCACACAAATTTGAAAACGATTA [CACACA_site3607]
Second: ATAAATAAATTTATACGTACACATAATATATATATA [XGTACX_site4634]
The “gcPBM binding intensity (ln)” value of the first is lower: 9.29 for the first, 9.33 for the second.

First: AAAAATAAAATGATGGTGCACATAAAGTATGGTTAC
Second: ATTGAAAATTATTTACCTTCTTTGAAAGAACAAATG [CACACA_negctrl_site1736]
The “gcPBM binding intensity (ln)” value of the first is higher: 9.86 for the first, 8.83 for the second.

Compared with “AATCCACAAAGACACACACACACATATATATATATA [CACACA_site1269]”, “TAATTAATATATTTTTGTACTTATATATTTGCGTAT [XGTACX_site340]” is lower in “gcPBM binding intensity (ln)” value: 10 for the first, 9.27 for the second.

Compared with “AAAATTCTTCGGGGGAGTACAAGGATATTCTACGTT [XGTACX_site3974]”, “TTATAATATATATGTGGTACTTATTTATTTATTTAT [XGTACX_site7572]” is lower in “gcPBM binding intensity (ln)” value: 9.53 for the first, 9.4 for the second.

Compared with “ATTTTTGATTTTAAAAGTACATAAGTATACTATTTA [XGTACX_site7162]”, “TTTTGTAATTTTGTATGTACACATTAAAGTAATATG [XGTACX_site2401]” is higher in “gcPBM binding intensity (ln)” value: 8.99 for the first, 9.13 for the second.

Compared with “GTAAAAATTTCATATTCACACACAAAAAAAAAAAAT [CACACA_site8457]”, “TTACTAAACTTATATGTACACACATATAACATTAAT [CACACA_site8710]” is lower in “gcPBM binding intensity (ln)” value: 9.87 for the first, 9.47 for the second.

Going from “TAAAAAAAAAAAAAAAGTACCCATACTATATTACAT [XGTACX_site946]” to “AGTAGTCTGGAGAAGAGTACATAGTATCTGATAACC [XGTACX_site2044]”, the “gcPBM binding intensity (ln)” value rises from 9.25 to 9.39.

First: AAGAATTTTACAAAATGTACTTATGTTTTGTTTTAC [XGTACX_site5632]
Second: ATCTTTCGTACATGTACACACAGAAAAAAAAAAAAA [CACACA_site2502]
The “gcPBM binding intensity (ln)” value of the first is lower: 9.25 for the first, 9.35 for the second.

Going from “GTTCCCATAAATAAATGTACATATTATATATATATA [XGTACX_site3242]” to “GTGTAATCATATAAGGGTACAAAAAATGTCTAACAA [XGTACX_site8122]”, the “gcPBM binding intensity (ln)” value falls from 9.43 to 9.41.

Going from “TTTCATTTCACAGACACACACACACCCTATATTTCC [CACACA_site3906]” to “ATATATATATATGTTAGTACTTATATTGAAATGGTA [XGTACX_site1406]”, the “gcPBM binding intensity (ln)” value falls from 10.2 to 9.14.

First: ATAAATAAAACAAAATGTACAAATATTCATATATTC [XGTACX_site1307]
Second: ATTTTTTTTTTTTTTGAACACACATTATTAATTTTT [CACACA_site7990]
The “gcPBM binding intensity (ln)” value of the first is lower: 9.41 for the first, 9.52 for the second.

First: ATATATTTTATATAGTGTACTTTAATTTTTTTTTTT [XGTACX_site5550]
Second: TTATTTACCTATTATAGTACATATAATTAATATAAT [XGTACX_site5724]
The “gcPBM binding intensity (ln)” value of the first is higher: 9.11 for the first, 9.07 for the second.

First: TACATATAAATAATAACACACACCTAGGTACATGGA [CACACA_site838]
Second: TTTAAAAAAAATATGTGTACTTAATATTTTCATATA [XGTACX_site7421]
The “gcPBM binding intensity (ln)” value of the first is higher: 9.78 for the first, 9.02 for the second.

First: CATACACAGAAACACACACACATATATATATATATA [CACACA_site4519]
Second: ATTCATATCTACTTCACACACATTTGATCATTCAAA [CACACA_site7207]
The “gcPBM binding intensity (ln)” value of the first is higher: 9.79 for the first, 9.69 for the second.

Compared with “ATGAAACAGTAACATTGTACTTTTACAAAAAAATAA [XGTACX_site806]”, “ATAGTATTTTTTATTACACACAAATAAAAAGAAAAA [CACACA_site2087]” is higher in “gcPBM binding intensity (ln)” value: 9.09 for the first, 9.38 for the second.

Compared with “AAAATCTATATTAACACACACACAAAAAAAAAAAAA [CACACA_site6738]”, “TTTAAATATATTAATACACACACGATATGTACAAAA [CACACA_site539]” is lower in “gcPBM binding intensity (ln)” value: 9.95 for the first, 9.58 for the second.

Compared with “AAAAAATTTTGAAATTGTACATATATAAAAAATATA [XGTACX_site2629]”, “GAATAAATTGTATTGTGTACATATAAAAGCATCTAA [XGTACX_site8271]” is higher in “gcPBM binding intensity (ln)” value: 8.96 for the first, 9.29 for the second.

Compared with “TTTCTATAATATTCTACACACCAACAACAAACATAT [CACACA_site6409]”, “TATAAATATACAAAGGTGCATAAAAAGTTATGTTTT [GTGCAC_site9832]” is lower in “gcPBM binding intensity (ln)” value: 9.64 for the first, 9.36 for the second.

Compared with “GAATCACTAATTTTTTTACACACCACAATTTAATTT [CACACA_site8311]”, “TTTCGAATTAAAGCATGTGAAAATTTTCAAAAAATA [XGTACX_negctrl_site577]” is lower in “gcPBM binding intensity (ln)” value: 9.61 for the first, 8.97 for the second.

“ATAATAATATAATATTCACACAATTGAAATAGTGTA [CACACA_site6083]” was tested, and the “gcPBM binding intensity (ln)” value was 9.18.
